Assay results taken from paper PMC10726135.
Some of the results follow. At the low end of the ranking, values are background and their order means little. The protein was read in a cell extract, so binding may be indirect.

Target: T1, HNF4alpha2 (COS-7 nuclear extract) (UniProt P41235)
T1 sequence: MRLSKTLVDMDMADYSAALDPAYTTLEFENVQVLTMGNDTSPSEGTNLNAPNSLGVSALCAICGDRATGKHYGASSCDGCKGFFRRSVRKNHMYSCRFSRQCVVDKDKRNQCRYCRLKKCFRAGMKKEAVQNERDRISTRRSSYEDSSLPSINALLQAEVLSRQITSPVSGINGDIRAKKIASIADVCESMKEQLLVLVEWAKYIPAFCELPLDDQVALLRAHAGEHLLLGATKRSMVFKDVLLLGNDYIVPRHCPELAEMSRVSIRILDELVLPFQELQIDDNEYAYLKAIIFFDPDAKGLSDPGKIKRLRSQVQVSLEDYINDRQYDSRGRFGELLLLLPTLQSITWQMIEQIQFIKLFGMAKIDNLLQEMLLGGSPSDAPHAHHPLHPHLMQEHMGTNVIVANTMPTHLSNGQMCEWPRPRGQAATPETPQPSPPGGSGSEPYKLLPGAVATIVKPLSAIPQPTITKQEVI
Test: protein-binding microarray
Settings: COS-7 nuclear extract on double-stranded Agilent 4x180k PBM; binding buffer, salt, pH and temperature not given; high values mean tight binding; double strand, one strand shown; sequences stand for … in …GCCTAGGGAGATTAGAGTATCGGTCGA

Sequence	binding signal (log2 normalized intensity)
GACATAGTTTTTGCCCTTAAGCAGCATGTA	1.16
ATGGTTTGACCCTGCGATAAGTAGATACCA	0.964
TGTCTTCTGACCTTTGGCAATATCTCCCAG	3.48
GCCATTTCTGAGCAAATATTTGGGGTATGT	1.51
CCTGAAGCCTTCCTTAATCCTTCAGTATGC	0.828
CTTAAATAATGCATACGCTAGCTTTCTGGT	-0.269
CTCATGAGGGGCCTGTCAGGCCCAGAAACA	-0.671
ACCTCCTGGGCCCAAGTGCTCCTCCCCATC	3.37
ATAAGGGTGGCCATCCATCCTGGCGACAGC	-1.19
AAGCTGATAAGCCAAGAATGTACTCTCCCC	2.52
TTCAAAGGACAGACTTTGGACCTGGCCCTC	5.66
TCTGGGAAATGTAGTTCCGGAGAACACGGA	0.42
GGTCCATAAAACCAGTCAGGCAAACAACAG	-1.25
TTTTAATGTGTGCTTTCAGGTGTGAACCCA	3.13
CATGTTGAGTGGAATATGAGGTCAGGGTTC	2.71
TCCACATCAGAGAGTTCAAACTCTGAAGTT	1.02
CTTTCCTAATGGTACCATCTGCCACTCATA	-0.978
GGTACAGAAACAGCTGGATTGTTACATCAT	0.0638
AGCCAAGCTCCCCTTTTAAACTGAAGCATG	-1.16
TTTAACTTGGCAAGGGGAGGCACTCATGGT	-1.02
AGGGACTAAGCTTGTAGACCAAGGAGGCCT	-1.05
ATGTTAGTCTTGAGTCCCAAAGTCCAAAGG	5.42
GGGTCAAAGTCTGGATCCGTTAACAGCGGC	2.43
TCATATTTGTTATATTTGTTATACCAGACA	1.9
ACATCTCCGAGTCCAGGGATAACAGTCCTG	-0.842

Sequence	binding signal (log2 normalized intensity)
AAACAATGACCTCTGCACCCTTCCCTGAGT	3.51
GGATTTTTTGGGTAAAGTCCAGGCAGGACA	2.17
ACACCGTATCATCAAACCTGTTATTTGCGC	1.25
TTCTTTTTGAAGCAAAGCCTTTGAGCAGAT	0.819
CCTCTTTTAAGAAGCCAGTGTCTATTTACA	0.876
TTTTTTTTTTTTTTTTTTTTGAGATGGAAT	2.61
CCTTGGCCTCCCGGAGAGGCCCCGCCCCGT	4.84
CAGAGTAGCCTATCAGAAGAATCTGTATCA	-1.07
CTTCTCCTCCCCTCCCCCCAGTTCCCTGGG	4.75
CTGAGCACTGTCTCAGGGTCCACATTCCAG	2.6
CGCTCCTCTCTGTATTCCCTCTCTTCAGAA	0.543
GAGGACTGAGCCCGCTCCACTCCGGGCGAT	-1.07
GAGGTCATGTACATGAAAGCAAGTTAAAAC	1.09
CCTGGAGCAAACTTACTCTGGGGGAACCTC	-0.871
TTTGATCTGGGTGGGGGTGGAGGCAGCAGC	-1.01
TCAACACTGAAATAGCATACCTTTATTAAG	0.439
ATTAGGACCTGTTTGTCTTGCTGGGGAGAT	1.19
GTTGAGTGAATGGATGGATCCGCAGCCAGG	-1.05
AGAGCATCAGCAATGAACAAAGGTCGGTGG	3.41
CAATCTCGAGATCATTTACATGTGTAACAA	0.984
GAGGTGAGAAGCCTGAAATGAGTTTCATTA	0.613
AATGGATCTAAGGACAAAGTCCAAGGAAGG	4.48
GAGGGCTCAAGGTCTGCATGCCATTTTGCA	-1.14
GTTATCTATGGAACATGGACTTTGAACCTC	10.3
GGCCAAGGCAGATATACCAGATAAGGCAGT	-1.11

Sequence	binding signal (log2 normalized intensity)
ACGTGGAAGAAACTCATCTCCAGATAAGAC	-0.885
AAACCCTGAGGGTCAACACAATCTGATAGT	-0.851
TAATGACTGATAATTGAAAACAGAGATTGG	0.904
CGGCGCCGGACGCGTCCTCGGCTCTGCGCA	-1.15
TTGTATGCTTAACTATGTTTATCAGAGCAA	-1.14
GATGCCTAGGATTCTTGCATGATCGATCAC	1.7
TTTAACCTCCCTGCAGGTCTCTAAATGGTA	-0.0968
GGCCTTTGGAATCAAACAGATGTAGACATT	2
ACTGCATTCCCTTTCTCCTCCCCTCCCCTC	4.31
TTGGAGTTGAGGTCAGACATGGCTGTATGT	1.81
GTCTAATTGTGCTGAGAGAGTCCTTGTTTG	1.63
AGTGTGTAAGTATGCTCACTGACCTCTGCC	3.34
TAGCAATAATCTTTGAAATCTGCAAATAGA	-0.0917
TGGATGTTTCCTTTGAACTCTGCATCCAGG	2.14
ACAAATGAAAGAGCTCAAATGACAGAACAG	-1.14
CAGTAGTTCTCCTTTCTGCCCTTTGAAGCA	2.88
AGGAACTTGTTGGTAACCGGAGCAAAGGTT	3.05
TCTCCTCTGCCACTGTATCAGGGAGATAGT	-1.1
GCAGAATTTCTTTTAATGTGTGCTTTCAGG	1.58
CCAGATAAGACTATCTCATGACAGACCTAA	-1.19
TTGAACTGCTGGGGGTAAAGTGGATTGCTG	0.207
GGTATGGATTCTGGGACCCACCCACCTATG	0.346
CCAGACAGGAGGATTCCTGATGCGTTCAAG	-1.05
AGCCTGTGGCCAGGCTGCGTTTCAAAGCCA	-1.22
CAACATTGTCCAGCAGACACGGGCAGGTGA	-1.04

Sequence	binding signal (log2 normalized intensity)
ACAGCAACTCAGGCAACAATGCCTTGTGTA	-1.07
GATTCTTACAGGCAATTGATAATGATGTTT	1.53
CCCTTCGCTCCCCGACCTCCTGCTGCAGCT	1.88
AGAAGAAAGCCCTTTTTGGAATGTGTTTGC	1.2
AAGGTTGCAGAGTGTCCCACTTCAGGCAGG	-1.13
GCTGATCCTATTTACCTGCCTGTGCTGTGG	0.717
AAAACAGCATGCGGTAAAGAAGCCAGCCAA	-0.869
CAGTATACTGACTTATCAGGGTTATTTGCT	-0.769
TTCTTCTGCTTCCCTAGGGAGGTGATTGGT	1.52
CCTTATCAGCGGCCCTGTGCTGCCCCCGAT	4.71
AAGAGTGAATTCTGCAGCAGATGGCCAGCC	-1.19
CAACATAGTGATTTAGGCTTTTGGGCCCTG	0.609
AGACACACTCAGGCACTGGGATCCAAAGTT	-1.08
TCAGTATGAATGCCTTGGCCTCTGCAGACA	-0.694
GTTGTCTGATGGCTGCTTCACACAAACATC	-1.12
ATAAAGTGATTAGTGCAAGAATCCAAGAAT	-0.966
CTCCCTGAAGAAACAGTCTTTGCTTTTTGA	0.962
TAAAGTCCAAATTCCTTGGAATACATGGAA	1.78
CTGTCTAGGCCAGAGTTCACTTTCCTCTCA	0.906
AGATAGGACAGTGGTCTTTATGACTTGGGT	1.68
GTCTTACTAAATGCAGCCTTGGGCAAGTTA	-0.483
TTGGGCCCTGTCTGATAAGGGTGTTTGTCC	1.25
CTTCATATCAGTAAACCCCAATCAGGTTTC	1.49
AAAACTGGTCAATATCCACACAAACCCAGT	-1.01
GCAGGAGCTGGCCTGGTAGGACAGGGATCC	-1.11

Sequence	binding signal (log2 normalized intensity)
GACTTTAACCCCCTTGTCTTCCTCAAATTA	2.39
CATTCAGCACCAGGGATAGCGCCCACACTG	-1.07
GCTTATGTTTGCAAGTCGAGCAAGGTTCAG	2.32
AATTCCTTTCAAACTGTATTGCTCAATGTC	0.914
TGATATTGTGAAATATATATTTGCTCTTCA	0.828
GGTTAATTCACATCTCCAGTTCCAAAGTCC	5.54
GACCTTTGGACAGGGTGACGTCATTGGAAA	6.01
GCAGAGGGAGGACAAAGTTCTGTCCTTTGT	2.45
CGGTGTGAGTGGTCCTTATCAGCATGGGTC	1.84
ACAGAAGCCAGAGGCAGCAAGGTCAAAGTG	1.43
TCCACTGGACAGCAGCTACATAAGGGTAGA	-1.07
AGCCGGCCTCTTAACAGATGAGGACATTTC	-0.852
TCTGGACTTGGATCAGCCTGATTGAGTTCA	0.327
TTCACTAGACCTAGATAAGGGAGATGAAAG	-1.11
TGCTCTCTCATGCCCTTTGCCTCCCTGCAT	3.45
GGGGAAAGTCCACGTGAGAGGGTCGTGATC	1.69
TTCAGATGCAACACAGGGGGAGGAATGCTG	-1.16
GGAAATCATCAGCACATTGGTGAGAATGGA	0.774
TAGGGGGATTCTGGCTAAACCAGCCTAACA	-0.974
CTAGGGGAAACTGCTTTGGTTAATCATTAG	0.451
AACACAGAACTAGCCAGACCTGTTCCTCTG	-1.14
GGCTGGAGAGGAGGTTATCTCGGGGCTGGC	-1.17
TCCGCATCCTCAAGAAACACAGAACTATCA	-1.06
GAAGTTCTAGGAGCCTGGACATTTGCCACC	-0.732
CCACTCAGTCTCTTGAAATCCCAAGCAGTG	-1.09

Sequence	binding signal (log2 normalized intensity)
CTGAATCCAAAGGTCAATGCCAGGACCCTG	4.42
TGGGAGAGCACTTGGTGCCTCTGAGCTAAG	-1.18
GGAGTTTCCTGCCTGGTCCGCCCTTCCCCG	1.84
GAACTGACAAGCAGTGACCAAGGGTCAGTT	3.77
ATCCCCAGCCACGCTCCTCTTATCATTAGA	1.22
GGGGCGGGGGTTGCAAGTCTGAGGCTGCTC	-1.18
TTGGTGTAACTCTGGGTCTGAGACCAAAGT	1.59
GAAAAAAGCCAATCTCTCAAATCTAGCCAA	-1.17
GGTCTGTAGAAGGCGCTGTGAAGCACATCC	-1.07
AGGGAAAAAATAATCAGCTTAAGCATACAG	-0.995
ACAACATTGAAAGCGATCTTTGCATTCCCA	-0.794
ATTCTTAGACACAGTCTGAGATAGAAGGTC	0.907
AGGAGAAAGACCCTAAACCTGTTGGGTCAG	-1.13
TTTGATCAAAGGTCAGCTCTCCTTTGTCTT	4.1
TATTCAGAGTTAGCTAAGCTTCACTGACAT	-1.09
GTTCAAATTCCAGCTTCCCCACTTATTACC	2.08
GGTGTTCCTCAGCCTTGAATTGGCATGAGA	0.5
GAGGGGCAGGCTTAGCTGGGCTAGCACCTG	-1.03
GAGAAGTGATAAATTGGCCAAAGGTGAAGG	1.78
ATAAGCCTGAATTCTGGAAGGACTGTCTTT	0.351
